Test results reported in publication PMC4336329 (PLoS ONE, 2015).
Out of some 310,000 compounds screened, about 2,200 (0.71%) showed an effect of 50% or more. The effect is printed as a negative number. The list shows a part of the results.

target: human ether-à-go-go-related gene (hERG) potassium channel (human, UniProt Q12809); test: primary screen, population patch clamp on CHO cells stably expressing hERG
Sequence (Q12809 whole entry, looked up): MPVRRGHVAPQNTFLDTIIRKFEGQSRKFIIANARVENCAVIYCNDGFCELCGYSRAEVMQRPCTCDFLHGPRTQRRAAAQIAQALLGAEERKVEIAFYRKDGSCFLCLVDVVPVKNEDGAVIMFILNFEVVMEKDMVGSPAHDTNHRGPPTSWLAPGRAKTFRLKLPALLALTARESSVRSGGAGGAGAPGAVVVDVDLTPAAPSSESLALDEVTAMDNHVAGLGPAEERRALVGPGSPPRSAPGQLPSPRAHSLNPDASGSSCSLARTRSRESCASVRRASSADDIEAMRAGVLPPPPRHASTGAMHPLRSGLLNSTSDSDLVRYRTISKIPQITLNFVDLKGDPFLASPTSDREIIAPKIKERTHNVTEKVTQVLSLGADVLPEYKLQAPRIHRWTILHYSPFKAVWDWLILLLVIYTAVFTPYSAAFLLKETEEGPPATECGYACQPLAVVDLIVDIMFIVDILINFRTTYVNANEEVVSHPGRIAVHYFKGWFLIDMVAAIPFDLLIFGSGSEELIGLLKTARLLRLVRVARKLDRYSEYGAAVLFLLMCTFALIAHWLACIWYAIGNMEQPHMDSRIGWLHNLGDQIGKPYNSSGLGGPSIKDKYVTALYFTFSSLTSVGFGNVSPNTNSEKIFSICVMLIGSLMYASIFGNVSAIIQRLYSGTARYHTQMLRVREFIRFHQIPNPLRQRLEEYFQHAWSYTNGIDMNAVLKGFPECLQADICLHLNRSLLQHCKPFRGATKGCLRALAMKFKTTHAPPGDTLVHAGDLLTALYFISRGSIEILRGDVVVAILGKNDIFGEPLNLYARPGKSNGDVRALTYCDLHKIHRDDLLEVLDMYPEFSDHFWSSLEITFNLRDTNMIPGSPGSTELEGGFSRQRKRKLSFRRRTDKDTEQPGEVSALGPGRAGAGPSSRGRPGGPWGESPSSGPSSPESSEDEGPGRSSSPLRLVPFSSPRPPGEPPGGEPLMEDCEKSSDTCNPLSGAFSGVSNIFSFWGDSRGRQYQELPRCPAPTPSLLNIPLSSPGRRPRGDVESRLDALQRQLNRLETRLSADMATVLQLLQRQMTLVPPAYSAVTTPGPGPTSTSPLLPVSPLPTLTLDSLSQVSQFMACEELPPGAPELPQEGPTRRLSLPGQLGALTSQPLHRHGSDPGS

| Structure (SMILES) | hERG current change (%, negative = inhibition) at 1uM [%] |
| --- | --- |
| Cc1[nH]n(-c2ccccc2)c(=O)c1C(C[N+](=O)[O-])c1ccc(Br)cc1 (stereo not shown) | 2.06 |
| C/C(=N\NC(=O)CCC(=O)NCc1ccccc1)c1ccco1 | 14.5 |
| CC(C)N(C(=O)COC(=O)[C@@H]1CC(O)CN1S(=O)(=O)c1ccc(C(C)(C)C)cc1)C(C)C (stereo partly shown) | 14.7 |
| CC(C)N1CCN(CC#Cc2ccccc2)CC1CCO (stereo not shown) | 5.43 |
| Cn1nc(C(F)(F)F)c2cc(C(=O)Nc3ccc(F)cc3)sc21 | 5.59 |
| COc1ccc(C(=O)N/N=C/c2ccccn2)cc1OC | 4.54 |
| Cc1ccc(NC(=S)N(CCCN2CCC(C)CC2)Cc2ccco2)cc1 | -28.8 |
| CCOc1ccccc1-c1cc(C(=O)N/N=C(\C)c2cccnc2)c2ccccc2n1 | 8.11 |
| COc1ccc(CN2CC(C(=O)NCCN3CCN(c4ccccc4F)CC3)CC2=O)cc1 (stereo not shown) | 4.97 |
| S=c1[nH]nc(CN2CCCCC2)n1Cc1ccccc1 | 4.89 |
| CCN(CC)CCNC(=O)CCCCCn1c(=O)[nH]c2cc(C(=O)OC)ccc2c1=O | 0.0728 |
| O=C(CCCN1C(=O)/C(=C/c2cccs2)SC1=S)Nc1cc([N+](=O)[O-])ccc1O | 26 |
| CC(NC(=O)C1CSC2(C)CCC(=O)N12)c1ccccc1Cl (stereo not shown) | 3.77 |
| NC(=O)CSCc1nc2ccccc2s1 | 18.1 |
| CCC[n+]1c(C)sc2c3c(ccc21)CCCC3.[I-] | 5.2 |
| O=C(Nc1cccc(-c2cscn2)c1)C1CCN(Cc2ccsc2)CC1 | -18.8 |
| N/C(=N\OC(=O)c1cccc(Br)c1)c1ccc([N+](=O)[O-])cc1 | 16.7 |
| C=CCN1C(=O)C2(OCCCO2)c2c(C)ccc(C)c21 | 7.91 |
| COCc1cc(C)nc2sc(C(=O)Nc3ccccc3C)c(N)c12 | 8.84 |
| CCC(C)(C)NC(=O)C(c1ccc(F)cc1)N(Cc1cccs1)C(=O)c1cnccn1 (stereo not shown) | 3.55 |
| Cc1c(-c2nc(N)nc(Nc3ccccc3F)n2)oc2ccccc12 | 18.9 |
| CCn1c(=S)[nH]c2cc(C(=O)O)ccc21 | 9.05 |
| CCOCCCn1c(-c2ccc(Cl)cc2)n[nH]c1=S | 1.97 |

| Structure (SMILES) | hERG current change (%, negative = inhibition) at 1uM [%] |
| --- | --- |
| O=C(CSCc1ccco1)NC1CCCC1 | 13.6 |
| CCOC(=O)Cc1csc(NC(=O)CSc2nnc(-c3ccc(OC)cc3)n2C)n1 | -13.1 |
| C=CCC1(CC=C)CCCN1C(=O)c1cc(COc2cccc(OC)c2)on1 | 14 |
| Cc1ccccc1NS(=O)(=O)c1cc(S(C)(=O)=O)ccc1C | 18.7 |
| COc1ccc(NC(=O)C(=O)NCCN2CCN(C(=O)c3ccco3)CC2)cc1 | 5.39 |
| COc1ccccc1C(=O)NNC(=S)NC(=O)c1cc(OC)c(OC)c(OC)c1 | 10.2 |
| O=[N+]([O-])c1cccc(-c2noc(-c3cccs3)n2)c1 | 11.6 |
| CCn1c(SCC(=O)Nc2cc(F)ccc2C)nnc1-c1ccccc1O | 5.8 |
| C=CCOc1ccc(/C=C/C(=O)OCC(=O)NCc2ccco2)cc1 | 10.3 |
| CCC(C)n1c(O)c(C=NCc2cccnc2)c(=O)[nH]c1=S (stereo not shown) | 8.43 |
| COCCC(=O)N1CCC(n2nccc2NC(=O)CCc2ccccc2)CC1 | 13.1 |
| COCCCNc1oc(-c2ccccc2F)nc1C#N | 0.0132 |
| COC(=O)c1ccc(/C=C/C(=O)O)cc1 | 13 |
| CCCCn1c(NCCO)nc2ccccc21 | 5.59 |
| Cc1cc(C(=O)NNc2ccc(F)cc2)no1 | 11.8 |
| O=P(O)(COc1ccccc1)COc1ccccc1 | 2.49 |
| Cc1ccc(CNC(=O)CN(c2cccc([N+](=O)[O-])c2)S(=O)(=O)c2ccccc2)cc1 | 2.27 |
| COc1ccc(NC(=O)NC2(C(=O)N3CCOCC3)CCCCC2)cc1 | 13.7 |
| Cc1cccc(C(=O)OC2CCCN(C)C2)c1C.Cl (stereo not shown) | 7.67 |
| Nn1c(SCC(=O)N2CCCCCC2)nnc1-c1ccco1 | 3.51 |
| COC(=O)c1c(-c2ccccc2)csc1NC(=O)CSc1ncnc2sc(C)c(C)c12 | 5.85 |
| CC12CCC(C(=O)N(CC3CO3)C1=O)C2(C)C (stereo not shown) | 11 |
| Cc1cccc(N2CCN(C(=O)C3CCN(S(=O)(=O)c4c(C)noc4C)CC3)CC2)c1C | 12.8 |
